# Source: the BET-seq Pho4 binding data (Le et al. 2018)
# The other results are listed elsewhere or left out. These are noisy estimates, calculated here from bound and input reads.
# Target: T1, Pho4 (S. cerevisiae) (UniProt P07270)
# T1 sequence: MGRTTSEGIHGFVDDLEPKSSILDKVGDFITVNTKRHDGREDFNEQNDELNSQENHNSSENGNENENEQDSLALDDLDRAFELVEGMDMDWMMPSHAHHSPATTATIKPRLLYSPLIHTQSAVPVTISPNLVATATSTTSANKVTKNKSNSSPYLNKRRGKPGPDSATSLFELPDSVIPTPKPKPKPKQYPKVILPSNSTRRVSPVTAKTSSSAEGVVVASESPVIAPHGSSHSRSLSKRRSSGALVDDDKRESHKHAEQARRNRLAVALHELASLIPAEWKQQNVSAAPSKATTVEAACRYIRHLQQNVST
# Assay: relative binding free energy (BET-seq); higher = weaker binding
# Conditions: reference: library average
row,Sequence,relative binding free energy [kcal/mol]
1,CTTTGCACGTGTTGGG,0
2,AGTGGCACGTGTTTGA,0
3,CGGTGCACGTGTTGGC,-0.07
4,TGTGTCACGTGAGTAA,0.29
5,GTGGACACGTGTGTAA,0.17
6,TTGAACACGTGGCGGC,-0.02
7,GCATTCACGTGAGTGT,0.37
8,TTCTGCACGTGGGTCT,-0.15
9,CTGATCACGTGGGTAT,-0.12
10,ATGAGCACGTGTTGGT,-0.08
11,TATGGCACGTGGATAG,-0.18
12,AAGTCCACGTGAAGGG,0.32
13,GATGGCACGTGGTGGC,0.02
14,ATCGACACGTGTGGTA,0.11
15,GGTAGCACGTGTGTAG,-0.03
16,TTTGCCACGTGGTGAG,-0.16
17,CTTAGCACGTGATAGT,0.11
18,AATGTCACGTGATTTT,0.23
19,TTAGACACGTGACGGT,0.16
20,TAGGGCACGTGTTCTA,-0.16
21,ATTGGCACGTGTTGCT,-0.07
22,AGGGACACGTGGTGAA,-0.05
23,ATCGTCACGTGGTGGA,0.05

row,Sequence,relative binding free energy [kcal/mol]
1,TGGTTCACGTGGATCA,0.33
2,ACTTTCACGTGGGTGA,0.27
3,GCGGGCACGTGGGAAA,-0.15
4,TGATTCACGTGTTGAG,0.26
5,AGGAACACGTGGCTGG,-0.03
6,AAGGACACGTGTGTAA,0.13
7,AGTGGCACGTGGGGCA,-0.21
8,TGGGACACGTGGTACT,-0.14
9,TGAGACACGTGTAAGG,0.06
10,CGGGCCACGTGGGTAT,-0.27
11,GGTAACACGTGGGGAG,-0.02
12,TACGTCACGTGGGCGT,-0.07
13,GCGGTCACGTGCGATG,0.21
14,AGGATCACGTGTTTGG,0.09
15,TGGGCCACGTGTGAGA,0.11
16,TCTGTCACGTGTGTAG,0.11
17,ATGTGCACGTGGTATA,-0.28
18,CGGGACACGTGAGTTT,0.22
19,GTTGGCACGTGGTCAA,-0.07
20,GTGTCCACGTGTATGT,-0.1
21,CGGTGCACGTGACGTG,-0.03
22,TTATCCACGTGGTGGT,-0.06
23,TATATCACGTGAGGTG,0.33

row,Sequence,relative binding free energy [kcal/mol]
1,ATGCTCACGTGGGTGA,-0.04
2,TTGTGCACGTGGGCAT,-0.07
3,TGTTGCACGTGATGAA,0.15
4,TTAGACACGTGGTGTA,-0.02
5,CAAATCACGTGAGGGT,0.32
6,TATAGCACGTGTGTAT,-0.03
7,GTTGGCACGTGACGTT,0.23
8,GGTAACACGTGGGGCA,-0.09
9,TGTAGCACGTGAGGAC,0.21
10,GAGTGCACGTGGCTTG,-0.05
11,TGTAGCACGTGTCCGG,-0.02
12,TTTTTCACGTGAGTTG,0.46
13,CGGATCACGTGGGGAA,-0.06
14,GAGATCACGTGGTGAT,0.1
15,TATGGCACGTGTAACG,0.07
16,GACAACACGTGGAGGT,0.28
17,TAAGTCACGTGGTCAT,0
18,GGTTACACGTGGGAGA,0.13
19,ACAATCACGTGGGTGT,0.06
20,AGCGTCACGTGGTGAG,0.02
21,GTGCTCACGTGTGTTA,0.37
22,TAAGTCACGTGGATTT,0.23
23,AGGTACACGTGGTAAA,0.01

row,Sequence,relative binding free energy [kcal/mol]
1,ACGTTCACGTGACGGT,0.46
2,CTTATCACGTGTTGGC,0.1
3,GTGCGCACGTGTTTGG,0.01
4,GTCGACACGTGATAGG,0.17
5,GGTCGCACGTGTGTCG,-0.04
6,AGCTTCACGTGGCTGG,0.19
7,TTTCTCACGTGTTATA,0.17
8,TACATCACGTGGGGGA,0.03
9,GCTGTCACGTGATGGC,0.39
10,ACGGTCACGTGTGTGT,0.06
11,CGGTACACGTGAGTTA,0.36
12,GATTTCACGTGGCCTG,0.45
13,ACATTCACGTGTGGGA,0.33
14,AAGTGCACGTGTTGTA,-0.01
15,TTGCCCACGTGATGGG,0.01
16,TGATACACGTGGGGTT,-0.15
17,TAGATCACGTGGGTTA,0.01
18,GTCGGCACGTGGTTAT,-0.08
19,ATTGGCACGTGAGCGG,-0.03
20,GGGCGCACGTGGGGTG,-0.33
21,TAAATCACGTGTGGGC,0.1
22,GTTGGCACGTGAAGTG,0.27
23,CTTGTCACGTGCGGCT,0.08

row,Sequence,relative binding free energy [kcal/mol]
1,AGATACACGTGCAGGG,0.12
2,GGGTACACGTGGAGTA,0.01
3,AGCGTCACGTGATGTG,0.14
4,TTACTCACGTGGAAGG,0.27
5,TATGTCACGTGCCGTT,-0.03
6,TATTACACGTGATTTA,0.06
7,GTTATCACGTGGGACT,0.18
8,GTTGGCACGTGTGATT,0.16
9,TCTGGCACGTGTAAGG,-0.04
10,TGGGTCACGTGAGTGC,0.26
11,TTTTCCACGTGGGTTT,-0.1
12,GCAGGCACGTGGATGT,-0.09
13,TGGACCACGTGGGTAG,-0.3
14,GCGCTCACGTGGGTTG,0.04
15,ATTGACACGTGGATTT,0.01
16,TTGTCCACGTGGAAGT,0.03
17,TTGAGCACGTGGAGAA,0.06
18,TTGTGCACGTGTGCTC,0.04
19,TTTGGCACGTGGAGGG,-0.09
20,ATGTCCACGTGAGTGT,0.29
21,GATAGCACGTGAAAGG,0.23
22,AGTGTCACGTGGTGTA,-0.02
23,GAGTACACGTGTAGTG,0.1
